Test system: BLM-induced pulmonary fibrosis
Assay: BLM-induced established pulmonary fibrosis in mice, treatment d14-d21
Type: in vivo
Settings: 1.0 U/kg BLM IT, protein 7.5 mg/kg/d IP daily for 7 days starting d14
Description: FIGS. 9A-9O. M9 peptide and protein mitigated BLM-induced pulmonary fibrosis. Mice exposed to saline or 1.0 U/kg BLM by intratracheal instillation were treated with or without M9 peptide HGHVDPVKTPKI (SEQ ID NO: 4) (10 mg/kg/d) and M9 protein (SEQ ID NO: 1) 7.5 mg/kg/d) via IP injection daily for 7 days starting d14 after BLM injury. FIG. 9A: Representative micro-CT images at d21 after BLM exposure. FIG. 9B: Lung volumes were measured by quantitative-CT renditions. Lung compliance (FIG. 9C) and elastance (FIG. 9D) were measured using a flexiVent system. Lung weights (FIG. 9E) and body weights (FIG. 9F) are presented as bar graphs. […] Statistical significance (*P<0.05, **P<0.01, ***P<0.001 and ****P<0.0001) was assessed by one-way ANOVA with Turkey's multiple comparison. fLfs isolated from IPF lungs treated with PBS or recombinant full length M9 (rM9^FL) protein (2 μg/ml) for 48 h in vitro were tested for pro-fibrogenic proteins (FIG. 9L). fLfs (from IPF lungs) treated with PBS or extracellular domain of rM9^FL protein (rM9^ECD) as in FIG. 9L were tested for pro-fibrogenic proteins (FIG. 9N). […]
FIGS. 10A-10K. […] FIG. 10B: Lung volumes were measured by quantitative-CT renditions. Lung compliance (FIG. 10C) and elastance (FIG. 10D) were measured using a flexiVent system. […]
FIGS. 11A-11K. […] FIG. 11B: Lung volumes were measured by quantitative-CT renditions. […]

B1: U5a^ECD: recombinant extracellular domain of U5a (SEQ ID NO: 103) (protein, listed as Homo sapiens)
chain: MAVRPGLWPALLGIVLAAWLRGSGAQQSATVANPVPGANPDLLPHFLVEPEDVYIVKNKPVLLVCKAVPATQIFFKCNGEWVRQVDHVIERSTDGSSGLPTMEVRINVSRQQVEKVFGLEEYWCQCVAWSSSGTTKSQKAYIRIAYLRKNFEQEPLAKEVSLEQGIVLPCRPPEGIPPAEVEWLRNEDLVDPSLDPNVYITREHSLVVRQAALADTANYTCVAKNIVARRRSASAAVIVYVDGSWSPWSKWSACGLDCTHWRSRECSDPAPRNGGEECQGTDLDTRNCTSDLCVHTASGPEDVALY
- BLM-induced pulmonary fibrosis (overall): mitigated

— patent publication US12173061B2, “Compositions and methods for treatment of chronic lung diseases” (Board of Regents, The University of Texas System, priority 2021, dated 2024)
